In publication PMC12136788:
This is one part of the list.

T1: UNK ZnF1-3 (human, UniProt Q9C0B0 31-174)
T1 sequence: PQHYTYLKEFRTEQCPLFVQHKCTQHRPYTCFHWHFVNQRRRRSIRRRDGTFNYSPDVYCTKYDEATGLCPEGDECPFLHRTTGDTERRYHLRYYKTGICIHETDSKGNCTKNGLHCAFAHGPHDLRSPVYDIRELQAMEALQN

B1: chr2:113286301:113286302:+_ENSG00000114999_ENST00000233336|hu_mus|motif|central (ssRNA)
RNA: GGGAGUUCUACAGUCCGACGAUCAGCCGGCUGCUGCGGCACCUGCUCCGUGUCCGGGGGUGGGAAGACACUGGAUAUGGCGGUGUCCACGAUGCCCUGGCACAGUUCUGCAUAGAGUUUCUGGGCACACGCUGGGGCGCCGUUCAACAGAGGAUUGAGCAUCA
B2: chr3:9412954:9412955:+_ENSG00000134077_ENST00000452837|hu_mus|hu_hu_hu_mus_False|78_78 (ssRNA)
RNA: GGGAGUUCUACAGUCCGACGAUCGGUUGAUAUCUCUUCUUUGAUGGCUGGAUUUUCAUAAUAAUCUAAGAUAUGUGAAUCUGAAGUGCUGCUGGCAUGCUUUUUCUUACCAUCUUUCUCAUCUGCUUUGUCUCCUUGUCCACACAACAGAGGAUUGAGCAUCA
B3: chr16:94690093:94690094:+_ENSMUSG00000040785_ENSMUST00000117648|mus_hu|FALSE|FALSE (ssRNA)
RNA: GGGAGUUCUACAGUCCGACGAUCGGGCUGGGAUGACGGACACACAGCCUCGAUUCCAGGGGGAAAAAGUCUUAGUCGAUACUAAUUAAAAAGUGUUAAUGAUUUUUGAAAAUCAGAUUACAUCUAUAAAAGAUGAAAAGCAAACAACAGAGGAUUGAGCAUCA
B4: chr16:45382771:45382772:-_ENSMUSG00000022661_ENSMUST00000163230|mus_mus|mus_mus_mus_hu_True|48_58 (ssRNA)
RNA: GGGAGUUCUACAGUCCGACGAUCCUGGGUCAUGUUAUAAGACAAAUGGACAGGGAGGGCAUGCUUCUCAAAAAAUGUGAACUACUCACUAAGACUAACAAUAUUUAUCUAGCUAUAAAAAUAAGUUAAAUGAAUAAGUUAAGACAACAGAGGAUUGAGCAUCA
B5: chr8:122032151:122032152:-_ENSMUSG00000031835_ENSMUST00000081381|mus_mus|FALSE|FALSE (ssRNA)
RNA: GGGAGUUCUACAGUCCGACGAUCCGGUGAAAUCAAGAUCCCCAAAUUACAAAACAUGAUGGCAGUUGAUAGUUAUAAAAAAAUAAAGCGAAGGCUUGCAUCUCCCACAUCCGCGCAAGUCCCCUUCAGUUCAGUGUGUCCUCCCAACAGAGGAUUGAGCAUCA
B6: chr12:48362563:48362564:+_ENSG00000134291_ENST00000256686|hu_hu|hu_hu_hu_mus_False|58_58 (ssRNA)
RNA: GGGAGUUCUACAGUCCGACGAUCUCCGUCAAGCCCUUCGAUAGACCCUUGCGGGGGAAACUGUAAUCACUUUGUAUUUCUAAAAAAAAGAAACGCCAAAAACUUUCCAAAAAGCGGGGGUGGGGUGAGGCGGGAGGGGGAGGUCAACAGAGGAUUGAGCAUCA
B7: chr5:132203191:132203192:+_ENSG00000164405_ENST00000378667|hu_hu|motif|central (ssRNA)
RNA: GGGAGUUCUACAGUCCGACGAUCAUUCUUCCUCUUGGAUCUCUCGAACUCUUCAGUCCCCCAUGUGUAGAUAAGAUAAAACACGGCAAACUGCGGCACCACGCGAAAGAAAGACUCCCGAAUGCGGCGCAGAACAUUGGGGAUCAACAGAGGAUUGAGCAUCA
B8: chr8:71331417:71331418:+_ENSMUSG00000031864_ENSMUST00000110241|mus_mus|FALSE|FALSE (ssRNA)
RNA: GGGAGUUCUACAGUCCGACGAUCCACCAGCAUCGUGGAGUAGAGCACUUGGUUUUUAUAGUUGUUGUGAGCUUCGCUGUCAAAGCUGUUCAUGUAUCUGCAGAGCUCCUUCAUCCGGUGCAGCAGGUCACUGCAGCUUCGUCUCAACAGAGGAUUGAGCAUCA
B9: chr7:141438946:141438947:+_ENSG00000106028_ENST00000265304|hu_mus|hu_hu_hu_mus_True|18_88 (ssRNA)
RNA: GGGAGUUCUACAGUCCGACGAUCGACGAAAUACCUGUAACACAGGUGAAACAUGGCUGGCUUCUGUUUUUCUUACAACCUAAUCUUUAGGCUUUUCCUAAAGGAAAGAAAGAAAAGGCCCAGCCACUAAAUCAAGAAACUACACAACAGAGGAUUGAGCAUCA
B10: 101114645_101114765_1358_CDS_ENSMUSG00000043154_ENSMUST00000075941|mouse|control|control (ssRNA)
RNA: GGGAGUUCUACAGUCCGACGAUCCACCUCAUUGCCACUUCCCUCACUGAUACUACCUCCCGACUUUUUCUUUAUGCAUUGUUUUAUGAUGUCUGUGCAUUUUUUCAAAUCUUCAGAGCAUUUCAGUAAGAUGUCCAAGCACAUCAACAGAGGAUUGAGCAUCA
B11: 20143393_20143513_3609_3pUTR_ENSG00000173674_ENST00000379607|human|control|control (ssRNA)
RNA: GGGAGUUCUACAGUCCGACGAUCACAUUCUCCAAAUUGCUCAGUUCAUUCUAUACCUGAGAGUCUUGUGUCUUUUCACAUUUUGCUCUUUUCUGAAUAGGAAGAAAAAAAGCAAAGAUAAAAAGGAUGGUAGUUUAGGGUAAACAACAGAGGAUUGAGCAUCA
B12: 60974852_60976337_911_3pUTR_ENSMUSG00000042506_ENSMUST00000041683|mouse|control|control (ssRNA)
RNA: GGGAGUUCUACAGUCCGACGAUCGAGGAACUCAUGUGCGUCCUGCUGCUCAUAACCCGCCAGGUGCCGGGCGUGCGUCCACACCAGGUGCAGCAGCUUGUAUGGAAUGUGUGGGGAGCGGUGCCCUGAGUAAAACUCCUGGAACAACAGAGGAUUGAGCAUCA
B13: chr21:30439091:30439092:-_ENSG00000156261_ENST00000286788|hu_mus|FALSE|FALSE (ssRNA)
RNA: GGGAGUUCUACAGUCCGACGAUCCAGAAUCUUACAUACUCUGAUGUUAUCAACAUUGAAAUUGCCAGAAUCAGGAAAGAUAGAAACACAAGCCUGAGCAAUAAGCUUGGCCAAAAACGUCUCGCUGCCGUACUGCUUACUCAUCAACAGAGGAUUGAGCAUCA
B14: chr17:60770872:60770873:+_ENSG00000011028_ENST00000303375|hu_hu|hu_hu_hu_mus_True|88_98 (ssRNA)
RNA: GGGAGUUCUACAGUCCGACGAUCUCUUUAAAAAAAAUUCCUUUUUUUUUAAAAACAAUAGCACAUUUCGAGAAUCAAGAACUACAAUAGAGGGUCCGCUUUGAGUUUUUGUUCACAUCGUCCUGCACUGGGACACGGGGACUGCAACAGAGGAUUGAGCAUCA

Molecular target: T1, UNK ZnF1-3
Experiment: nsRBNS (natural sequence RNA bind-n-seq); RBNS binding buffer (assumed for nsRBNS): 25 mM Tris pH 7.5, 150 mM KCl, 3 mM MgCl2, 0.01% Triton X-100, 500 ug/ml BSA, 20 U/ml SUPERase-In, 4 C; UNK is unkempt and MSI1 is Musashi-1; names of the RNAs are library labels; protein concentration not given here; high values mean tight binding

Binder | binding signal
B1 | 0.583 enrichment R
B2 | 0.559 enrichment R
B3 | 1.14 enrichment R
B4 | 1.58 enrichment R
B5 | 2.61 enrichment R
B6 | 1.52 enrichment R
B7 | 1.32 enrichment R
B8 | 0.717 enrichment R
B9 | 0.308 enrichment R
B10 | 0.66 enrichment R
B11 | 0.859 enrichment R
B12 | 0.772 enrichment R
B13 | 1.21 enrichment R
B14 | 1.13 enrichment R
